# In the antibiotic and cytotoxicity screens of Wong et al. (2023):
# The list shows a part of the results.
# System: HepG2
# Test: cytotoxicity call (relative viability < 0.9)
# Details: 10 µM
row,SMILES,cytotoxicity call
1,CC(C)C[C@@H](C(=O)N[C@@H](Cc1ccc(OCc2ccccc2)cc1)C(=O)NC(C)(C)C)N(C)Cc1ccc(C(C)(C)C)cc1,inactive
2,CN(C)CC#Cc1cncc(C(=O)NN)c1,inactive
3,C[C@H]1CN([C@@H](C)CO)C(=O)CCCn2cc(nn2)CO[C@H]1CN(C)S(=O)(=O)c1ccc(C#N)cc1,inactive
4,C[C@H](CO)N1C[C@H](C)[C@@H](CN(C)Cc2ccc(C(F)(F)F)cc2)Oc2ccc(NC(=O)CCCCCC(=O)Nc3ccccc3N)cc2CC1=O,inactive
5,C[C@H](CO)N1C[C@H](C)[C@H](CN(C)CC2CCCCC2)Oc2ccc(NC(=O)Cn3cnnn3)cc2CC1=O,inactive
6,Cc1noc(C)c1S(=O)(=O)Nc1ccc2c(c1)C(=O)N([C@H](C)CO)C[C@H](C)[C@@H](CN(C)C(=O)Nc1cccc3ccccc13)OCCCC[C@H](C)O2,active
7,CSc1c(-c2ccc(Cl)cc2)[nH]c2ccccc12,active
8,CN(C)CCN1CCc2ncc(Cn3cncn3)n2CC1,inactive
9,C[C@@H]1CCCCO[C@@H](CN(C)C(=O)Cc2ccccc2)[C@@H](C)CN([C@@H](C)CO)C(=O)c2cc(NS(=O)(=O)c3ccc(F)cc3)ccc2O1,inactive
10,CC(C)NC(=O)Nc1cccc2c1O[C@H](CN(C)Cc1ccc(Oc3ccccc3)cc1)[C@H](C)CN([C@H](C)CO)C2=O,inactive
11,CCOC(=O)C(CCc1ccccc1)NC(C)C(=O)N1C(C(=O)O)CC2CCCCC21 (stereo not drawn),inactive
12,CO[C@@H]1CN(C)C(=O)c2ccc(NC(=O)C3CC3)cc2OC[C@@H](C)N(C(=O)CN2CCOCC2)C[C@H]1C,inactive
13,CCOC(=O)[C@@H](N)Cc1ccc(O)c(O)c1,inactive
14,C[C@H]1CN([C@@H](C)CO)C(=O)c2cc(NC(=O)Nc3ccccc3)ccc2O[C@@H]1CN(C)S(C)(=O)=O,inactive
15,C[C@@H]1CCCCO[C@@H](CN(C)CC2CC2)[C@H](C)CN([C@@H](C)CO)C(=O)c2cc(NC(=O)Nc3ccc(F)cc3)ccc2O1,inactive
16,C[C@@H]1CN([C@@H](C)CO)C(=O)c2cc(NC(=O)CCC(F)(F)F)ccc2O[C@@H](C)CCCCO[C@H]1CN(C)Cc1ccncc1,inactive
17,COC(=O)c1ccc([C@H]2C=C(C(=O)N3CCOCCOCCOCCOCC3)O[C@@H](OCCCCO)C2)cc1,inactive
18,Cc1ccc(S(=O)(=O)Nc2cccc3c2O[C@H](CN(C)CC2CC2)[C@H](C)CN([C@@H](C)CO)C3=O)cc1,inactive
19,C[C@H]1CN([C@@H](C)CO)C(=O)c2cccc(NS(C)(=O)=O)c2O[C@H]1CN(C)C(=O)Nc1ccc(C(F)(F)F)cc1,inactive
20,COc1ccc2[nH]c3c(-c4cccc5ccccc45)nccc3c2c1,inactive
21,CCS(=O)(=O)Nc1ccc2c(c1)C(=O)N(C)[C@@H]1CC[C@H](CC(=O)NCc3ccccc3F)O[C@@H]1CO2,inactive
22,COCCNC(=O)C[C@H]1CC[C@@H]2[C@H](COC[C@H](O)CN2C(=O)Nc2ccccc2OC)O1,active
23,CO[C@@H]1CN(C)C(=O)c2cc(NC(=O)C3CCOCC3)ccc2OC[C@@H](C)N(Cc2cccnc2)C[C@@H]1C,inactive
24,C[C@@H]1CN([C@@H](C)CO)S(=O)(=O)c2ccc(-c3ccc(F)cc3)cc2O[C@H]1CN(C)S(C)(=O)=O,inactive
25,O=S1(=O)CCCCN1,inactive
26,COc1ccc(S(=O)(=O)N(C)C[C@@H]2OCCCC[C@@H](C)Oc3ccc(NS(C)(=O)=O)cc3C(=O)N([C@H](C)CO)C[C@H]2C)cc1,inactive
27,COc1ccc(CN(C)C[C@H]2OCCCC[C@@H](C)Oc3ccc(NC(=O)Nc4cccc5ccccc45)cc3C(=O)N([C@@H](C)CO)C[C@@H]2C)cc1,inactive
28,C[C@H]1CN([C@@H](C)CO)C(=O)c2cc(NS(C)(=O)=O)ccc2O[C@H]1CN(C)Cc1ccc(C(=O)O)cc1,inactive
